Source: the supplement of paper PMC4466236
The full ranking holds about 33,000 sequences; the median of “E-score (dimensionless, -0.5 to 0.5)” is about -0.058, and the highest 2% start at about 0.35. The list shows a part of the results.

system: MvaT; experiment: PBM 8-mer E-score (mean of HK and ME arrays) (E-score (dimensionless, -0.5 to 0.5)); higher = stronger relative binding preference; most listed sequences are background and not binding sites
Description: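 Protein binding microarray: GST-tagged full-length MvaT (P. aeruginosa PAO1) bound to two universal double-stranded 60-mer arrays (ME and HK), each with a constant 25-mer primer and a variable 35-mer region covering all 8-mers. The 8-mer E-score (rank-based, range -0.5 to 0.5, >0.45 = specific binding) is the mean of the two arrays.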

Row | Sequence | PBM 8-mer E-score
1 | GCGGTCTA | -0.0122
2 | AGCAATTG | 0.159
3 | ACGCAGCT | -0.191
4 | CGCTGATC | -0.18
5 | GTGACCTA | -0.228
6 | AAATCCGA | -0.15
7 | CGTGGTAG | -0.127
8 | AGCTCAGG | -0.234
9 | AGTTTTGG | 0.0675
10 | CCTTGTAC | -0.0591
11 | CCCCATAC | -0.233
12 | CGCTTAAG | 0.0812
13 | ATCTGATC | -0.129
14 | GGTGAATA | 0.189
15 | AAACAGAC | 0.185
16 | ACGGACTA | 0.0336
17 | CCGTCGCC | -0.325
18 | TAACCGAA | 0.16
19 | ATCAAAAT | 0.0868
20 | GGTAGGAA | -0.129
21 | AACGTTCA | -0.138
22 | CCAAGAAA | 0.0478
23 | TGCACGCA | -0.248
24 | AATACTAA | 0.356
25 | AGGGCATC | -0.273

Row | Sequence | PBM 8-mer E-score
26 | CATGCGTA | -0.173
27 | GAATGCAA | 0.00611
28 | ACCGGTAC | -0.109
29 | AGACCAAG | -0.0618
30 | AGATAGGG | -0.0696
31 | CGATAAGC | -0.0955
32 | TGGAGGAA | -0.289
33 | AAAAGTCC | -0.0566
34 | AGTCCACT | -0.0256
35 | AAGAAGGT | -0.0662
36 | CTACCGCC | -0.106
37 | CTGCCAAA | -0.146
38 | CGATTCTA | 0.00752
39 | AAGTCATC | -0.141
40 | AGAAGGCC | -0.303
41 | AAGAACGG | -0.0359
42 | TCTAAAGA | 0.188
43 | CCTTAGCC | -0.131
44 | CGCGAGGC | -0.195
45 | AATAGATC | 0.103
46 | AACCTTAT | 0.0878
47 | ACTCCGGA | -0.0445
48 | CCAGTCAA | 0.0826
49 | AACGGATA | 0.0541
50 | ACGGGCAC | -0.284

Row | Sequence | PBM 8-mer E-score
51 | ATGCGAAT | 0.222
52 | AATAATGA | 0.361
53 | GAAAATGA | 0.0956
54 | AAAGGGGG | -0.207
55 | TTGACAAA | 0.266
56 | ACCTGATA | 0.08
57 | CCCGTTCA | -0.129
58 | CCAACAGG | -0.155
59 | CTATATAC | 0.377
60 | ACGATCCC | -0.0808
61 | CCAAGCGG | -0.203
62 | ACAATCGT | -0.12
63 | GGTACTAA | 0.0989
64 | GTGGCTAA | -0.0199
65 | ACACGAGT | -0.0299
66 | AGAGCAAG | -0.141
67 | CGGAATTA | 0.19
68 | CGTCCATA | 0.0563
69 | GCGGTATA | 0.232
70 | GGCCACCA | -0.218
71 | AGATCACA | -0.0311
72 | AAGGCTAT | -0.116
73 | AGGCAGAA | -0.226
74 | CATGTGGC | -0.181
75 | CCCGAAAG | -0.162

Row | Sequence | PBM 8-mer E-score
76 | ATTGCAAG | 0.0414
77 | GGCGCGCC | -0.233
78 | ACTACAAT | 0.313
79 | AGAGATCC | -0.183
80 | CTAGCCGC | -0.166
81 | CCACTTAC | 0.0232
82 | AATCAAAC | 0.281
83 | CCCCCCGG | -0.32
84 | GGTTCATA | -0.00965
85 | ATTTCCCA | 0.132
86 | ATAACACG | 0.221
87 | AGGCATCC | -0.375
88 | GGAAGTTA | 0.227
89 | CGATCTAC | -0.244
90 | GTTGCTAA | 0.0853
91 | CTGTGAAG | -0.101
92 | CCCTGTGA | -0.176
93 | CCTGTTAC | -0.0778
94 | CGAACAGC | -0.223
95 | CTCCGCAC | -0.155
96 | GCCCTCAC | -0.201
97 | TAATCAGA | 0.178
98 | CATTTCAC | 0.0481
99 | CATCTGCC | -0.295
100 | CGCTCTCC | -0.326

Row | Sequence | PBM 8-mer E-score
101 | ACATGAAT | 0.284
102 | CCTGGGGC | -0.381
103 | AACTGCTC | -0.162
104 | AGATTCCC | -0.178
105 | ACGATGGG | -0.189
106 | CTATAACA | 0.297
107 | CCCCTCCA | -0.322
108 | AGGCTTAT | -0.0613
109 | ATAACGGA | 0.194
110 | ATAGCCTA | -0.165
111 | CGTGCAAC | -0.0835
112 | GTCTTAGA | -0.0209
113 | AATACAGG | 0.219
114 | GCTGCTAA | -0.101
115 | GGGTTACC | -0.217
116 | AACAGATC | -9.21e-05
117 | GTTGGCTA | -0.0873
118 | ACGCGCCC | -0.188
119 | CCATTATC | 0.15
120 | CCAGTCCG | -0.243
121 | ATCAAACC | 0.0801
122 | GCATAGCC | -0.311
123 | AGACTACC | -0.0133
124 | ATCCAGTC | -0.147
125 | AAGCGGTC | -0.186

Row | Sequence | PBM 8-mer E-score
126 | ACGTTCAG | -0.194
127 | GCGGTACA | 0.0892
128 | AGCACACT | -0.0782
129 | AACGAGTA | 0.0595
130 | CGTGGATA | 0.112
131 | ATCAGATC | -0.0989
132 | CAATTGTA | 0.209
133 | GATGGTAC | -0.23
134 | ACAACCCC | -0.143
135 | AGGGACTG | -0.203
136 | ATACGCGG | -0.0783
137 | ATAGCCCG | -0.129
138 | ACGATTAG | -0.109
139 | GTGTTTAA | 0.315
140 | GCAAAAGA | -0.148
141 | CTGTTGCC | -0.134
142 | GACTTTTA | 0.281
143 | ATAGACCG | -0.0226
144 | CTAACGAA | 0.157
145 | GGGTGAAC | 0.0197
146 | CTGTTCGA | 1.94e-05
147 | AAGTGATT | 0.127
148 | ATTCCTCC | -0.163
149 | CTGCCGTC | -0.306
150 | GAAATCCA | -0.0641

Row | Sequence | PBM 8-mer E-score
151 | GGTTAATA | 0.276
152 | CAGCTGGG | -0.199
153 | CTTCGCTC | -0.248
154 | CTTCCGGA | -0.124
155 | GTTCAATA | 0.28
156 | AAGATCCA | -0.105
157 | CTTTCTTA | 0.149
158 | TATCCCCA | 0.0591
159 | GAATAGTC | 0.00338
160 | AGTACGCG | -0.114
161 | GACTCGGC | -0.21
162 | GCGTAATA | 0.244
163 | GCTATACA | 0.135
164 | ACCATAGT | 0.0576
165 | GTGTCTTA | 0.0753
166 | ATGGGAAA | 0.0599
167 | CACTCCAA | -0.0816
168 | CAAAAGTC | -0.0392
169 | ATAGCTCC | -0.184
170 | CGCCATCC | -0.338
171 | GTAAACAA | 0.0823
172 | CGTCTCAA | -0.0154
